In publication PMC4336329 (PLoS ONE, 2015):
Hit rate of the full screen: of about 310,000 compounds, about 2,200 (0.71%) showed an effect of 50% or more. Effects have a minus sign here. The list shows a part of the results.

Each compound was assayed against human ether-à-go-go-related gene (hERG) potassium channel (human, UniProt Q12809) (assay: primary screen, population patch clamp on CHO cells stably expressing hERG).
Sequence of human ether-à-go-go-related gene (hERG) potassium channel (Q12809 whole entry, looked up): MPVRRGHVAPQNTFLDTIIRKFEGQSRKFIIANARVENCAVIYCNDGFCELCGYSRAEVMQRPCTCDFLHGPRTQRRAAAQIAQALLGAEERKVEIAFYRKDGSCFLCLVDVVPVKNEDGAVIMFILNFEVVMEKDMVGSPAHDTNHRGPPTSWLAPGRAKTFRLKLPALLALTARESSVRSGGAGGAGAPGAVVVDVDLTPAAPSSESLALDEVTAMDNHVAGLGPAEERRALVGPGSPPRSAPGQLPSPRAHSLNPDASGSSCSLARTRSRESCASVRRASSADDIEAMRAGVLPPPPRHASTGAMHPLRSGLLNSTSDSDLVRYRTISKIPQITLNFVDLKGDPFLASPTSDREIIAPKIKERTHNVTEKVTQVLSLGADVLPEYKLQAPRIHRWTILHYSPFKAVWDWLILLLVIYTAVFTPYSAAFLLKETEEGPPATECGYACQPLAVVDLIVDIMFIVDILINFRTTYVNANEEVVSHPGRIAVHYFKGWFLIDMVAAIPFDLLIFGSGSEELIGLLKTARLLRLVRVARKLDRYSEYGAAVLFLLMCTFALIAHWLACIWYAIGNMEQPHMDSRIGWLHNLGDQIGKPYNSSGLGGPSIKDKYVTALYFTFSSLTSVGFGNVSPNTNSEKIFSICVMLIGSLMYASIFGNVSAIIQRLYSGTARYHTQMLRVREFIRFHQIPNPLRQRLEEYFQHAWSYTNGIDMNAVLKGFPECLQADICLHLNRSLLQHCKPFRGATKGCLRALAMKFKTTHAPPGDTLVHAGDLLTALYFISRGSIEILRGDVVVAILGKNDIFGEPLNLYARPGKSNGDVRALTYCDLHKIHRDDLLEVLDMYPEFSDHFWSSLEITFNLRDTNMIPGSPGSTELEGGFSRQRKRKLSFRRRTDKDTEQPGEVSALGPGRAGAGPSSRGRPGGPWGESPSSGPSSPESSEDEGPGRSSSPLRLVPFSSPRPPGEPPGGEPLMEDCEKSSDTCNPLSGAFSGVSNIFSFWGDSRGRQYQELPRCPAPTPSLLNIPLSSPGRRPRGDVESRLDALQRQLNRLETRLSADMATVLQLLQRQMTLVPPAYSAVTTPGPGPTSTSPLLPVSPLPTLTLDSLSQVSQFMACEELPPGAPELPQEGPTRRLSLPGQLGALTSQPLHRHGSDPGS

Row | Compound | hERG current change (%, negative = inhibition) at 1uM
1 | CC1CCCN(C(=O)C2CCCN(S(=O)(=O)c3cccc4nsnc34)C2)C1 (stereo not drawn) | 9.22%
2 | CN1CCN(C(=O)/C(=C/c2ccc(F)cc2)NC(=O)c2ccccc2)CC1 | -80.8%
3 | CCC(C)(O)c1[nH]c2ccc(C(=O)OC)cc2c1C (stereo not drawn) | 8.51%
4 | C[C@H](NC(=O)[C@H]1N2C(=O)c3ccccc3C2SC1(C)C)C(=O)N1CCN(C)CC1 (stereo partly drawn) | 10.4%
5 | NC(=O)C1CCCN(CC(=O)Nc2ccccc2C(=O)NC2CC2)C1 (stereo not drawn) | 5.06%
6 | CC(=O)Nc1cc2ccccc2oc1=O | 11.2%
7 | Cc1ccc(C)c(Oc2ncnc(N)c2[N+](=O)[O-])c1 | 6.85%
8 | COc1ccc(/C=C/C(=O)Nc2cccc(S(=O)(=O)NC3=NCCCCC3)c2)cc1OC | 12.2%
9 | C=CCNC(=O)c1c(N)n(-c2cccc(S(N)(=O)=O)c2)c2nc3ccccc3nc12 | 3.17%
10 | CN1C(=O)c2ccc(N(C)C)cc2C1=O | 12.4%
11 | Cc1c(C(=O)N/N=C/c2ccncc2)no[n+]1[O-] | 13.8%
12 | CCCCCCCCCCCCCC(=O)O | 2.26%
13 | O=c1[nH]c(O)c(/C=C2\C=Nc3ccc(OCc4ccccc4)cc32)c(=O)[nH]1 | 19.8%
14 | C#CCOCCOCCOCCNc1nc(N2CCN(C(=O)[C@H](Cc3cc4ccccc4[nH]3)n3cc([C@@H](N)C(C)CC)nn3)CC2)nc(N2CCN(C(=O)[C@H](CCCCN)n3cc([C@@H](N)CO)nn3)CC2)n1.Cl (stereo partly drawn) | 13.4%
15 | Cc1cc(C)n(/N=C/c2ccco2)c(=O)c1C#N | 5.76%
16 | Cc1c(N=C2SCC(=O)N2/N=C/c2ccccc2Cl)c(=O)n(-c2ccccc2)n1C | 9.32%
17 | O=C(C1=C(O)C(=O)N(CC2CCCO2)C1c1ccccc1Cl)c1ccco1 (stereo not drawn) | 13.2%
18 | CCSc1ccc2cc(OC)ccc2[n+]1CC.[I-] | 11.5%
19 | Cc1ccc(NS(=O)(=O)c2cc3c4c(cccc4c2)C(=O)NC3=O)cc1C | 4.94%
20 | O=C(NCc1ccccc1Cl)C1CCC(CNc2nc(=S)[nH]c3ccccc23)CC1 (stereo not drawn) | 9.06%
21 | CSc1nc(N)nc(SCC(=O)C23CC4CC(CC(C4)C2)C3)c1C#N | 5.26%
22 | COc1ccc(C(=O)OCC2CC(c3ccccc3)=NO2)cc1OC (stereo not drawn) | 2.83%
23 | COc1cc(OC)nc(NC(=O)CSc2nc3ccccc3o2)n1 | 9.47%
24 | CC(C)c1ccc(NS(=O)(=O)c2ccc3[nH]cc(C(=O)N4CCC(C(N)=O)CC4)c(=O)c3c2)cc1 | 19.6%
